The full ranking holds about 33,000 sequences; the median of “E-score (-0.5 to 0.5)” is about -0.054, and the highest 2% start at about 0.39. This is one part of the list.
target: Ylr278c (UniProt Q05854); assay: PBM E-score (8-mer binding enrichment) (E-score (-0.5 to 0.5)); higher = stronger / more preferred TF binding; most listed sequences are background and not binding sites; conditions: protein concentration: 200 nM; construct: GST-DNA-binding domain
Method in brief: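 The E-score, a modified Wilcoxon-Mann-Whitney statistic, was computed by the Universal PBM Analysis Suite for every ungapped eight-base word pooled with its reverse complement. Scans behind it were normalised with masliner after bound GST-tagged yeast transcription factors were detected with fluorescent anti-GST. The proteins, at about 100-200 nM, had been applied to universal all-10-mer Agilent arrays made double-stranded by primer extension.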

Sequence	PBM E-score
AATATAGG	0.0354
TCGAACAA	-0.0943
CGTGGGAC	-0.0297
CTGGCTCA	-0.136
ACATCTGG	0.0256
GAAGGAGC	-0.314
CTCCACGA	-0.0757
GAATTGAC	0.0975
ATGCCTTG	-0.0703
CCAGGGCG	0.0486
AAAGAGCG	0.0481
AACAAGCC	-0.121
GCCCCACA	-0.139
GCGGGTCC	0.177
GCTATTCC	0.173
CGTCCTTA	-0.206
ATCTATAG	-0.109
CTGATCCA	-0.127
ACATCAAG	0.00648
CGCGCTCC	0.347
GAGTGCTA	-0.00265
AACTCCGG	0.497
AGTTTGTC	-0.0538
ATCGCTAC	-0.0939
ACGGTATG	-0.1

Sequence	PBM E-score
AGTTACCG	0.187
TGAACCAA	-0.22
AAATCAAA	-0.0357
CATATTCG	0.151
GCGTATAA	0.072
GTAGACAA	-0.0795
AGAGGAAT	-0.2
CAGTTCTC	0.123
GATGCGTA	-0.0332
CAAGCTTG	-0.0834
ATGCCCTG	-0.196
CTATCTCA	-0.0411
AGACTTTC	-0.0647
AAACCCCC	-0.0651
ACATAATC	0.0327
GAGTTCCC	0.0904
AGAGTATA	-0.163
ATGAGCCG	-0.00632
ACCTTCTG	-0.0277
ACAGCGCC	0.215
AAGACCTA	-0.0495
CTCGGGTA	-0.0227
ACAGGTCA	-0.109
CGCCCGTC	0.264
AATACGGG	0.116

Sequence	PBM E-score
GTGTACTA	-0.171
GTCGGAAA	0.424
ATTCTACG	0.0201
GCGCCGCC	0.247
GTAAGGTA	0.0123
AAAAAGCG	0.172
ACCGACAA	0.199
GGGGCTCA	-0.0512
CACTTACA	-0.188
CCCTATCC	-0.0154
AAAGAAAT	-0.1
GCTGTCGA	0.0714
ATTCCCCG	0.375
CACTGCTG	-0.189
CATTTGAG	-0.0532
AATTTCAT	-0.128
CGGGACCA	0.0437
CAACAGTA	-0.07
AATATTCA	-0.0797
AAGTCCCA	-0.102
CTGAGTGA	0.187
AGTAGATC	0.0105
GTTTTCGA	-0.128
CATTGGTC	-0.0858
CACAAATC	-0.0387

Sequence	PBM E-score
AACGAAAG	-0.107
GGGGTGGA	0.0686
AAAGTTCC	0.173
GAGCCGGC	0.325
TCATGAAA	-0.0379
AGTTTATG	-0.128
CACCTCTC	-0.0621
CTAAGATA	-0.0917
CAGTTCGG	0.269
ATGTGTCG	-0.0696
CGTGAGCC	-0.0777
AGCAATAC	-0.0703
ACTTTCCG	0.321
ATCAATTA	0.0539
ACCTTGGG	-0.056
AGGTGGCG	-0.114
TGTGTGAA	-0.121
TCTACAAA	-0.217
AATGTAGT	-0.0362
ACTTGAGA	-0.232
AATCTTAT	0.0117
AACATGTA	-0.00363
CAGGAATC	-0.035
TATAATGA	-0.0749
AGAACCAG	-0.0294

Sequence	PBM E-score
ATTAAGTG	-0.106
GGTTCAAA	0.0582
CGCACCAG	0.0559
CGTATCCC	0.048
GCGCGGGA	0.248
GCGCCACC	-0.163
ATTTCATC	0.166
GCGTTACA	0.00694
ATCTGTGG	-0.141
GCAGCAGA	-0.169
GTTTTCTA	-0.0305
ATAATCCG	0.376
AGTACTTC	0.134
GCCCTGTA	-0.071
GAAAAAGA	0.0891
GCAAAAAA	0.0913
ATTCCGGA	0.46
CAACGCTC	-0.195
CAGAGGAG	-0.243
CCTTGGCC	-0.306
GCATATTA	-0.0157
GCGTTTCC	0.201
AGTCGTAG	-0.174
CTACCTTA	0.00722
TACAGGAA	0.0451

Sequence	PBM E-score
GAGTTCTA	-0.0512
ATGATTCG	0.0401
AGCGTGAT	-0.116
GTACGTCA	-0.24
CCTTTCAC	-0.133
ATTGGCCG	0.208
CAGACGCC	-0.0403
AGGCGAAG	-0.195
CCGCCCAA	0.113
ATTTGCAG	0.0717
GCGTTCCA	-0.1
ACATTGCT	-0.203
CGGTCCTA	0.155
TGGGGAAA	0.0549
AATTCTAA	-0.0445
CTTGTTGA	-0.0886
AAACATCG	-0.126
CATAAAAA	-0.0962
CCTAAATC	0.0832
GGATTCAA	-0.137
CAGCATAA	0.0515
TAGCCACA	-0.289
TCTTCCAA	-0.0225
GACGAGGC	0.0299
AACACCTT	-0.117

Sequence	PBM E-score
AGTAGACT	-0.0796
GAATACTA	0.0108
ATAGGTTA	-0.0689
GACGTTCC	0.218
CGTGCGGA	0.279
AATCCGTG	0.26
CAGGAGAA	0.0274
GGTACACA	-0.0855
CACAGATG	-0.139
CTAGGTTC	0.0862
ACACCGCG	0.216
CCTGTGAG	-0.271
CCTTATCA	-0.188
GAACCGGC	0.283
ACATTCTC	-0.0548
ACCCAGAC	-0.0988
GCCCATCC	-0.108
AATCGGCT	0.286
CAGGGCAG	-0.225
AGTATTCG	-0.0379
CAAAGTTC	0.0218
CTTATTAA	0.0334
